# Source: PubChem BioAssay AID1347073 (National Center for Advancing Translational Sciences (NCATS), 2019)
# Out of some 45,000 compounds screened, about 200 (0.44%) were called active. Inconclusive results (about 7%) are left out. Calls follow the shape of the dose curve; as a rule, active = well fitted activation curve with a large enough effect; inconclusive = small, poorly fitted or top-dose-only effect; inactive = no such curve, though single readings can be large or run the other way. The list shows a part of the results.
# Test: qHTS of TDP-43 Inhibitors: NCGC Sytravon Library Screen; also: 0% is about no effect; nearly all actives have a fitted effect of over 55% in size
# Details: yeast TDP-43 toxicity rescue, BacTiter-Glo growth, 24 h; series mostly up to 46.1 µM; growth rescue (activation): at the top concentration
# Procedure, shortened: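 TDP-43-expressing yeast, pregrown in raffinose, seeded at OD600 0.02 in galactose medium with compound for 24 hr at 30 deg C. Growth read by BacTiter-Glo luminescence, so rescue of toxicity appears as activation.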
row,Structure (SMILES),growth rescue (activation)
1,O=C(CN1CCN(c2ccccn2)CC1)N1CC(O)CO1 (centres undefined),inactive: 4.85%
2,CCCN(CC(=O)Nc1ccccc1OC)C(=O)c1cnc(Cl)c(Cl)c1,inactive: 4.56%
3,COc1ccccc1CNC(=O)C1(C)CCN1Cc1ccc(OC(F)(F)F)cc1 (centres undefined),inactive: 9.47%
4,CCCCN(C(=O)CSc1nnc(Nc2ccccc2)s1)c1c(N)n(CCC)c(=O)[nH]c1=O,inactive: 7.03%
5,COc1ccc(/C=C/C(=O)NC(=S)Nc2ccccc2)cc1OC,inactive: -11.1%
6,Cc1ccc2c(c1)Cc1nc3ccccc3nc1-2,inactive: 21.3%
7,CCOc1nc(NC(=O)NS(=O)(=O)c2cccc(Cl)c2)nc(-c2ccccc2)n1,inactive: 12.7%
8,Cc1ccc(S(=O)(=O)N2CCOCC2)cc1NC(=O)COc1ncnc2ccccc12,inactive: -14.6%
9,CCCN1Cc2cccc(C(=O)Nc3ccc(CN4CCCC4)cc3)c2C1=O,inactive: -3.28%
10,Cc1ccc(N(CC(=O)NCc2ccccc2)C(=O)c2csnn2)c(C)c1,inactive: -8.05%
11,CCCn1c(=O)[nH]c(=O)c2c1nc(-c1ccccc1)n2CCN1CCOCC1,inactive: 18.2%
12,O=C(O)c1ccc(NCc2nc3ccccc3n2Cc2ccccc2)cc1,inactive: 26.5%
13,COc1ccccc1-n1cc(-c2ccc([N+](=O)[O-])cc2)[nH]c1=S,inactive: -4.21%
14,Cc1nc(NC2=NCN(CCCN3CCOCC3)CN2)nc2c(C)cccc12,inactive: 5.36%
15,N#Cc1ccccc1NC(=O)CN(Cc1ccccc1)Cc1ccccc1,inactive: -7.13%
16,OCC1CCCN(Cc2cn(Cc3ccccc3)nc2-c2cc3ccccc3o2)C1 (centres undefined),inactive: 2.11%
17,CC1=NOC(=O)/C1=C\c1ccc(-c2ccc(Cl)cc2Cl)o1,inactive: 26.9%
18,Cc1ccc(NC(=O)Cn2c(CCC(=O)O)ccc2-c2cccs2)cc1Cl,inactive: 9.12%
19,COc1ccc(/C=C/C(=O)OCC(=O)Nc2cc(C(N)=O)cc(C(N)=O)c2)cc1,inactive: 14.2%
20,CCN(CC(=O)Nc1ccccc1C(=O)NC1CC1)Cc1cccs1,inactive: 14.9%
21,Cc1noc(C)c1C(=O)OCC(=O)/C=C1/N(C)c2ccccc2C1(C)C,inactive: -10.1%
22,CCOc1ccc(S(=O)(=O)Nc2ccccc2C(=O)N/N=C/c2c(OC)ccc3ccccc23)cc1,inactive: -21.3%
23,Cc1nc(NCC2CCCO2)[nH]c(=O)c1CCC(C)C (centres undefined),inactive: -10.2%
24,O=C(c1ccc2c(=O)n(Cc3ccccc3)c(=S)[nH]c2c1)N1CCOCC1,inactive: 10.4%
25,N#Cc1ccc(NC(=O)COC(=O)CCNS(=O)(=O)c2ccccc2)cc1,inactive: 16.7%
26,CCOC(=O)C1CCN(C(=S)NC2CCCC2)CC1,inactive: 19.6%
27,FC(F)(F)c1ccc(Cl)c(NC(=S)N/N=C/c2ccccc2C(F)(F)F)c1,inactive: 7.55%

row,Structure (SMILES),growth rescue (activation)
1,CCOC(=O)CC(NS(=O)(=O)c1ccc2[nH]cc(C(=O)O)c(=O)c2c1)c1ccc(OCC)c(OC)c1 (centres undefined),inactive: -2.95%
2,COc1ccc(OC)c(N(C(=O)c2ccco2)C(C(=O)NC2CCCC2)c2cc(OC)c(OC)c(OC)c2)c1 (centres undefined),inactive: -0.351%
3,O=C(NCC1(c2ccccc2)CCCC1)c1ccco1,inactive: -1.27%
4,CCN1CCN(CCOc2ccccc2OCc2ccccc2)CC1,inactive: -0.103%
5,Cc1noc(C)c1C(=O)N1CCC(CO)(Cc2ccccc2)CC1,inactive: 15.7%
6,O=C(CN(C(=O)c1csnn1)c1ccccc1)NCc1ccc2c(c1)OCO2,inactive: -1.02%
7,Brc1ccc2c(c1)[C@H]1OCC[C@H]1[C@@H](c1cccs1)N2,inactive: 23.9%
8,COc1ccc(/C=C/C(=O)N2CCC(c3ccccc3)C2)cc1 (centres undefined),inactive: 13.4%
9,Cc1nonc1CN(C)C(=O)CC1C(=O)NCCN1Cc1cccc(C(F)(F)F)c1 (centres undefined),inactive: 5.79%
10,COc1ccc(C2C(C#N)=C(N)Oc3n[nH]c(-c4ccccn4)c32)c(OC)c1OC (centres undefined),inactive: -8.64%
11,CC(C)CC(N)c1csc(NC(=O)Nc2ccccc2C(C)C)n1 (centres undefined),inactive: 13.6%
12,COCc1cccc(-c2csc(C(NC(C)=O)c3cccc(OC)c3)n2)c1 (centres undefined),inactive: 4.38%
13,OC(c1ccc(F)cc1)c1ncc(-c2ccccc2Cl)[nH]1 (centres undefined),inactive: 2.86%
14,O=C(COC(=O)c1cccs1)Nc1ccc(S(=O)(=O)N2CCOCC2)cc1,inactive: 7.53%
15,CCOc1ccc(S(=O)(=O)N2CCN(C(=S)NCc3ccco3)CC2)cc1,inactive: -23.2%
16,CCOC(=O)N1CCN(c2nc(-c3cccs3)nc3ccccc23)CC1,inactive: 5.56%
17,COc1ccccc1N1CCN(C(=O)CN2C(=O)c3ccccc3C2=O)CC1,inactive: 4.25%
18,CC(=O)NC(C)(c1ccccc1)c1nc(-c2cccc(F)c2)cs1 (centres undefined),inactive: 15%
19,CCOc1ccc(NC(=O)NC2CCS(=O)(=O)C2)cc1 (centres undefined),inactive: 10.5%
20,O=C(NCCCl)NNC(=O)c1cc2ccccc2cc1O,inactive: -24.4%
21,CNc1ncnc2c1ncn2[C@H]1CN(C2CCCC2)C[C@@H](CO)O1,inactive: 10.9%
22,COc1ccc(N2CCN(CC(O)COc3ccc(C)cc3C)CC2)cc1 (centres undefined),inactive: -7.59%
23,COc1cccc(C(=O)NCC(=O)N/N=C/c2cn[nH]c2-c2ccccc2)c1,inactive: 13.7%
24,O=C(NNC(=O)c1cc(-c2ccccc2)nn1-c1ccccc1)c1ccccc1,inactive: 25.7%
25,CC(=O)OC[C@@H]1CN(Cc2ccccc2)C[C@H](n2cnc3c(NCc4ccc(F)cc4)ncnc32)O1,inactive: 4.65%
26,C/C(CC(=O)Nc1ccc2c(c1)OCCO2)=N\NC(=O)COc1ccc(C)cc1Br,inactive: 18.5%
27,CNC(=S)NNS(=O)(=O)c1ccc(OC)cc1OC,inactive: 7.62%
